# Laboratory results reported in publication PMC6919601, “Identification of Plasmodium dipeptidyl aminopeptidase allosteric inhibitors by high throughput screening” (PLoS ONE, 2019).
# The whole screen tested about 110,000 compounds, of which about 230 (0.21%) showed an effect of 50% or more. The list shows a part of the results.
# Biological target: DPAP1 (Plasmodium falciparum, UniProt Q8IIJ9)
# Test: primary screen, percent inhibition; read by cleavage of a fluorogenic dipeptide substrate; higher = more effect of the substance
# Parameters: species or system P. falciparum D10 trophozoite lysates; single well
# 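Also: 30 min substrate incubation versus DMSO and 10 µM JCP410 controls.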
# Chain of DPAP1 (Q8IIJ9 whole entry, looked up): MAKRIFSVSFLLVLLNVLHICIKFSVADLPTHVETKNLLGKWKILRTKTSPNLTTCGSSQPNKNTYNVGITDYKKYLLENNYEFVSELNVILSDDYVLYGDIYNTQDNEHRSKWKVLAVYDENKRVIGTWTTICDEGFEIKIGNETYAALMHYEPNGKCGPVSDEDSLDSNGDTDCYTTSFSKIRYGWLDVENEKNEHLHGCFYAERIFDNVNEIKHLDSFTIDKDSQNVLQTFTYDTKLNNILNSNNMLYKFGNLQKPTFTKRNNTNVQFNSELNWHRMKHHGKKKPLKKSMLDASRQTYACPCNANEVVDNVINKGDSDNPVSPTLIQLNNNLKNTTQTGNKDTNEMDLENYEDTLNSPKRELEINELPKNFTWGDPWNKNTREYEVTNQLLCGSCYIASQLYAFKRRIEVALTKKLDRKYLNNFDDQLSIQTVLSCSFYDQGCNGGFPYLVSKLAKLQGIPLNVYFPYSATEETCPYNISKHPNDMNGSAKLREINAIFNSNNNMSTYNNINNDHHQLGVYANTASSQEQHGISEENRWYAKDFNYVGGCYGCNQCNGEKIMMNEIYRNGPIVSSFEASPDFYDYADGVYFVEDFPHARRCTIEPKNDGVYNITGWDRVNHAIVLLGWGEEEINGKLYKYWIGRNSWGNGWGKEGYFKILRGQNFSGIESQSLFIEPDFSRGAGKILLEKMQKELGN
row,Compound,% Inhibition @ 10 uM [%]
1,CCOC(=O)c1sc(C)c2c(O)nnnc12,-6
2,CC(=O)N1c2ccccc2N=C2CC(c3ccc(Cl)c(Cl)c3)CC(O)=C2C1c1cccnc1 (stereo not drawn),-0.759
3,Cc1cc(C(=O)N(C)C)sc1-c1ccccc1,0.5
4,O=C(NCc1ccco1)c1ccc(COc2cccc3ccccc23)cc1,-2.09
5,CCOC(=O)C1CCN(C(=O)c2ccc(C#Cc3ccccc3)cc2)CC1,-5.16
6,Cc1ccccc1Cn1cccc1/C=C1/C(=N)N2C=CSC2=NC1=O,0.275
7,CCCOc1ccc(S(=O)(=O)NCc2ccc(OC)cc2)cc1,-1.06
8,O=c1c2c3c(sc2nc2n1CCC2)CCCC3,-0.0267
9,COc1cccc(CNC(=O)C2CCN(c3nc4ccccc4n4cnnc34)CC2)c1,10.8
10,O=C(Nc1ccccn1)c1c(O)nc2c(c1O)CCCC2,1.2
11,O=C(Cc1ccccc1Br)N(CCCN1CCOCC1)Cc1cccs1,-3.12
12,COc1cc(C2C(C#N)=C(N)OC3=C2C(=O)CCC3)ccc1OCc1ccccc1Cl (stereo not drawn),2.36
13,C=CCOc1ccccc1CN1CCc2c([nH]c3ccccc23)C1,0.472
14,CC1=NC(=S)C(C#N)C(c2ccccc2)=C1 (stereo not drawn),25.7
15,Cc1nn(Cc2ccc(Cl)c(Cl)c2)c(C)c1NC(=O)c1cc(-c2ccco2)on1,-10
16,Cc1cc(-c2ccc(NC(=O)c3ccccc3C(=O)O)c(C)c2)ccc1NC(=O)c1ccccc1C(=O)O,3.98
17,CC(C)C[C@H](NC(=O)c1ccc(-c2ccncc2)cc1)C(=O)NCC#N,-4.93
18,O=C(CNC12CC3CC(CC(C3)C1)C2)c1ccc(Br)cc1,-1.82
19,O=C(CS(=O)(=O)Cc1ccccc1)NCCc1ccc(F)cc1,-2.83
20,CC(C)(C)c1ccc(C2c3sc(O)nc3SC3C4CC(C5C(=O)N(CC(=O)O)C(=O)C45)C23)cc1 (stereo not drawn),-5.36
21,O=C(NC(N1CCCC1=O)(C(F)(F)F)C(F)(F)F)c1ccccc1Cl,-5.51

row,Compound,% Inhibition @ 10 uM [%]
1,Cc1ccc(C)c(NC(=O)c2csc3ccccc23)c1,-4.89
2,O=S(=O)(c1cccc(SCc2ccccc2)c1)c1cccc(SCc2ccccc2)c1,-3.93
3,COc1ccc(C(=O)/C=C/c2cn(CC(O)CN3CCN(C)CC3)c3ccccc23)cc1 (stereo not drawn),-0.0235
4,O=C(Cn1cc(C(=O)C2CC2)c2ccccc21)NCC1CCCO1 (stereo not drawn),-1.82
5,CCC1(C#N)c2ccccc2C=CN1C(=O)c1ccccc1 (stereo not drawn),3.91
6,O=C(Nc1ccc(-c2cn3ccsc3n2)cc1)c1ccc(Cl)cc1,-0.366
7,Cc1cccc(C(CC(=O)N2CCCC2)c2ccccc2)c1O (stereo not drawn),-1.1
8,CN(c1nnc(NC(=O)NCc2ccc(F)cc2)s1)C1CCCCC1,2.27
9,COc1ccc2c(c1)Cc1sc(NC(=O)C34CC5CC(CC(C5)C3)C4)nc1-2,3.25
10,O=C1CC(c2nc3cc4ccccc4cc3[nH]2)CN1c1cccc(Cl)c1 (stereo not drawn),-2.87
11,Cc1ccc(S(=O)(=O)CC(=O)c2cc3ccccc3oc2=O)cc1,6.1
12,CCOC(=O)N1CCC(NC(=O)c2ccc(CS(=O)(=O)c3ccccc3C)o2)CC1,2.14
13,Cc1ccc(NC(=O)CN(c2ccc(Cl)cc2C)S(C)(=O)=O)c(C)c1,4.05
14,CSC1=C(C#N)C2(CCCCC2)C2=C(O)CC(C)(C)CC2=N1,-0.712
15,CCN1C(=O)c2cccc3c(S(=O)(=O)N4CCCC4)ccc1c23,-1.22
16,NC1=NC(c2ccco2)n2c(nc3ccccc32)N1 (stereo not drawn),-3.13
17,COC1CCCCC1N1CCN(C(=O)c2ccco2)CC1 (stereo not drawn),-7.34
18,CCOc1ccccc1CNC(=O)c1cc2c(Cl)ccc3c2n1CCO3,3.8
19,O=C(Cc1ccc(Cl)cc1)NCc1cccnc1,1.59
20,CCOC(=O)c1c(C)nc(C)c2c(=O)oc3c(OC)cccc3c12,-0.0678
21,CCN(CC)CCNc1nc2nonc2nc1NCCN(CC)CC,-1.19

row,Compound,% Inhibition @ 10 uM [%]
1,CC(=O)/C=C/c1cn(C(C)=O)c2ccccc12,1.83
2,Nc1ncc(Br)cc1S(=O)(=O)NCCC(=O)NCC1CCCO1 (stereo not drawn),0.813
3,N#CC1=C(SCC(=O)Nc2ccc(Br)cc2)NC(=O)C(C#N)C12CCCCC2 (stereo not drawn),-2.47
4,COc1ccccc1[C@@H](C)C[C@H](NC(=O)c1ccc(-c2ccccc2)cc1)C(=O)NCC#N,-5.04
5,CCOc1ccc(OCCSc2nc3ccccc3o2)cc1,4.83
6,c1ccc2c(CN3CCc4c([nH]c5ccccc45)C3)cccc2c1,-1.98
7,COc1cc(C2C(C#N)=C(N)Oc3[nH]nc(-c4cccs4)c32)cc(OC)c1O (stereo not drawn),2.18
8,CNc1nc2ccccc2n2c(C)nnc12,-6.66
9,COc1ccc(OC)c(C2C(C#N)=C(N)Oc3[nH]nc(-c4cccs4)c32)c1 (stereo not drawn),2.69
10,O=C(NCc1nc2ccccc2[nH]1)c1nc(-c2ccc(C(F)(F)F)cc2)no1,4.57
11,CNC1=C(C)C(=O)c2ccccc2C1=O,5.03
12,Cc1c(CC(=O)NCCc2ccccc2)c(=O)oc2c(C)c(O)ccc12,4.13
13,COc1ccc(-c2c3c(=O)n(C)c(=O)n(C)c3cn2-c2cc(C)ccc2O)cc1,2.02
14,CN1CCC2(CC1)N=C(c1ccccc1)C(=S)N2,2.97
15,CCNC(=O)/C(C#N)=C/c1c(Oc2ccc(Cl)c(C)c2)nc2c(C)cccn2c1=O,-3.23
16,CCn1cc(C2C3=C(O)CC(c4ccccc4)CC3=NC(C)=C2C(=O)Nc2cc(C)ccn2)cn1 (stereo not drawn),2.7
17,CCNc1ncnc2c1oc1ccccc12,0.627
18,O=c1c(NC2CCN(Cc3ccccc3)CC2)c(-c2ccccc2)c1=O,-1.4
19,Cc1c2cnn(CC(=O)NCC3CCCO3)c(=O)c2c(C)n1Cc1ccccc1 (stereo not drawn),1.22
20,COc1cc(C2C(C#N)=C(N)Oc3c2c(C)nn3-c2ccccc2)ccc1O (stereo not drawn),7.09
21,CCCCNC(=O)CN(c1cccc(Br)c1)S(C)(=O)=O,2.44
